Measured values reported in PubChem BioAssay AID485344 (National Center for Advancing Translational Sciences (NCATS), 2010).
Screen size: about 340,000 compounds; about 6,900 (2%) were called active. Cut-off read from the data, not from the text of the source: active = inhibition above about 30%; inactive = below that, where a call was filed. The entries are a selection whose mix differs from that of the whole data set. The source gives no active or inactive call for entries shown without one.

Biological target: D(2) dopamine receptor (Homo sapiens) (UniProt P14416)
Assay: HTS Assay for Allosteric Antagonists of the Human D2 Dopamine Receptor: Primary Screen for Antagonists; note: 0% is about no effect
Details: HEK293 TREx D2 cells, calcium flux, dopamine EC80; at 10 µM; stronger effect = higher value
In short: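 Measurement of antagonist activity uses fluorescent calcium dye in inducible HEK293 T-REx D2 cells: 10 s baseline, compound addition with 180 s read, EC80 dopamine addition with a further 180 s read.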

Chain of UniProt P14416 (P14416 whole entry, looked up): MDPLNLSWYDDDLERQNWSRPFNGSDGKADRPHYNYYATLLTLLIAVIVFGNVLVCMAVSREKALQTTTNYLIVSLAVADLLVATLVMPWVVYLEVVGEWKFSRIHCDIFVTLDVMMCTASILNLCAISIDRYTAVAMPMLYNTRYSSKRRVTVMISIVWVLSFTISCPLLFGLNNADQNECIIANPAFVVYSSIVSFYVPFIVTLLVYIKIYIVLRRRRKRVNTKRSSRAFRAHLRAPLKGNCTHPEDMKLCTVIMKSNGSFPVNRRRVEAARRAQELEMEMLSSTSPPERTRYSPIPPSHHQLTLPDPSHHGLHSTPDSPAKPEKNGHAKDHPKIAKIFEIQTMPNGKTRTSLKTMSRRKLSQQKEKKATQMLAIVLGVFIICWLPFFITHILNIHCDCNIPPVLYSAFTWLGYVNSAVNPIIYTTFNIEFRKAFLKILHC

Row | SMILES | inhibition
1 | CC(=O)c1ccc(NC(=O)c2cc(-c3ccc(C)s3)nc3ccccc23)cc1 | -1.84%
2 | CCC(C)NC(=O)Cn1c(=O)n(CCCCCC(=O)NCc2ccccc2Cl)c(=O)c2sccc21 (stereo not given) | 7.36%
3 | O=C(CSc1nccn1-c1ccc(Cl)cc1)Nc1ccc(Cl)c(Cl)c1 | 4.38%
4 | COc1cc(NC(=O)N2c3ccccc3Sc3ccccc32)cc(OC)c1 | -7.7%
5 | CCOC(=O)N1CCc2c(sc3c2c(=O)n(CCc2ccccc2)c(=O)n3CC(=O)Nc2ccc(C)cc2)C1 | 12.9%
6 | COCC1CCCN(Cc2cn(-c3ccccc3F)nc2-c2cc(C)sc2C)C1 (stereo not given) | active: 41%
7 | CCc1cccc(NC(=O)CCNS(=O)(=O)c2cccc3nonc23)c1 | 17.2%
8 | COc1ccccc1NC(=O)C1=C(C)Nc2nnnn2C1c1ccc(C(F)(F)F)cc1 (stereo not given) | -14.5%
9 | Cc1c(Cl)cccc1-n1ncc(C(=O)Nc2ccc(Br)cc2F)c1C1CCNCC1 | 10.9%
10 | CCCCNC(=O)c1ccc2c(c1)ncn2-c1cc(OC)ccc1OC | -11.1%
11 | CC(=O)c1c(C)oc2c1cc(NS(=O)(=O)c1ccc(Br)cc1)c1ccccc12 | -6.29%
12 | O=C(Nc1ccccc1F)c1ccc2c(Cl)c3c(nc2c1)CCC3 | -0.694%
13 | CCCNc1ccc(-c2nc(-c3ccccn3)no2)cc1[N+](=O)[O-] | 5.07%
14 | CN(CC(=O)NC(=O)NCc1ccccc1)CC(=O)Nc1ccc(Cl)c(C(F)(F)F)c1 | active: 35.2%
15 | CCOc1ccccc1CNCc1cccn1-c1nnc(N2CCN(c3ccccc3)CC2)s1 | 4.21%
16 | COC(=O)c1ccc(NC(=O)CCn2cnnn2)cc1 | 19.4%
17 | CCN(CCCNC(=O)c1nn(-c2ccc(OC)cc2)c(=O)c2c1c1ccccc1n2C)c1ccccc1 | -16%
18 | COc1ccc(S(=O)(=O)Nc2ccc(-c3cn4c(C)csc4n3)cc2)cc1 | -22.9%
19 | COc1ccc(-n2ncc3c(NC4CCCC4)ncnc32)cc1 | -9.13%
20 | COc1ccccc1S(=O)(=O)Cc1ccc(C(=O)NCc2ccc(Cl)cc2)o1 | -6.13%
21 | Cc1ccc(N2CCN(S(=O)(=O)c3cccc4ccccc34)CC2)cc1Cl | 4.56%
22 | O=C(Nc1cccc(C(F)(F)F)c1)c1cc(CN2CCOCC2)on1 | -11.5%
23 | COc1ccccc1/C=C/CN1CCC(CO)(Cc2ccccc2)CC1 | active: 53.2%
24 | O=C(Cn1nc(C(F)(F)F)c2c1CCCC2)Nc1ccc(Br)cc1 | -13%

Row | SMILES | inhibition
25 | Cc1ccc(-n2nnnc2CNC(=O)c2cc(C(F)(F)F)cc(C(F)(F)F)c2)cc1C | 15.8%
26 | COc1cccc(CNC(=O)COc2cc(=O)n(C)c3ccccc23)c1 | 3.06%
27 | COc1cccc(-c2noc(C3CC(=O)N(c4ccc(F)cc4)C3)n2)c1OC (stereo not given) | -3.55%
28 | COc1ccccc1CNC(=O)c1cc2sccc2n1Cc1ccc(Cl)cc1 | -7.9%
29 | COc1ccc(NC(=O)CSc2ccc3nc(-c4ccccc4)cn3n2)c(OC)c1 | -4.96%
30 | CCc1ccc(NC(=O)CCn2c(=O)c3cccn3c3ccccc32)cc1 | -16.4%
31 | Cc1ccccc1NC(=O)CSc1nc2ccc(NC(=O)c3cccs3)cc2s1 | -3.72%
32 | CSc1cccc(NC(=O)c2cccc(N3CCCS3(=O)=O)c2)c1 | -0.0028%
33 | Cc1ccc(NC(=O)c2ccc3[nH]c(C)cc(=O)c3c2)cc1 | -16.2%
34 | CCN1CCN(CCNC(=O)c2ccc3c(c2)N(Cc2cccc(Cl)c2)C(=O)c2ccccc2S3=O)CC1 (stereo not given) | active: 40.3%
35 | CCOc1ccc(OCC)c(Nc2ccc3cc(S(=O)(=O)N4CCCC4)ccc3n2)c1 | -4.76%
36 | CCC1=Nc2cc(C(=O)NC3CCC(C)CC3)ccc2Sc2ccc(C)cc21 (stereo not given) | 2.31%
37 | CCC1CN(C(=O)N2CCC(C(=O)NCc3cccc(OC)c3OC)CC2)c2cc(C)ccc2O1 (stereo not given) | -4.73%
38 | CC(C)c1ccc(NC(=O)c2ccc(F)c(S(=O)(=O)N3CCc4ccccc43)c2)cc1 | -8.67%
39 | O=C(C1CCCN(S(=O)(=O)c2cccc3nsnc23)C1)N1CCN(c2ccccc2F)CC1 (stereo not given) | 14.8%
40 | CCC(C)NC(=O)CSc1nc2n[nH]c(C)c2c(=N)n1-c1cc(Cl)ccc1C (stereo not given) | -13.9%
41 | COc1ccc(S(=O)(=O)c2cn(C)c3ccc(C)cc3c2=O)cc1 | -1.69%
42 | Cc1cc(C)c2oc(C(=O)Nc3ccc(S(=O)(=O)N4CCCCCC4)cc3)cc(=O)c2c1 | 0.574%
43 | Cc1cccc(NC(=O)c2c(C)cc(C)nc2SCC(=O)c2ccccc2)c1 | 4.08%
44 | CNc1nc(C)nc(-n2nc(C)cc2C)n1 | active: 35.3%
45 | O=C(Nc1ccc(S(=O)(=O)N2CCCCC2c2cccnc2)cc1)c1ccc(Br)cc1 (stereo not given) | 1.71%
46 | Cc1cccc(NC(=O)COC(=O)CCCC2=NS(=O)(=O)c3ccccc3N2)c1 | -14.6%
47 | COc1ccc(N(C(=O)CNC(=O)c2ccco2)C(C(=O)NC2CCCC2)c2ccncc2)cc1 (stereo not given) | active: 51.1%
48 | CCOc1ccc(S(=O)(=O)Nc2cccc(-c3ccc(OCC)nn3)c2)cc1 | -15.7%

Row | SMILES | inhibition
49 | Cc1ccc(SCC(=O)Nc2ccc(C(=O)Nc3ccc(O)cc3)cc2)cc1 | active: 71.8%
50 | COc1ccccc1CCNC(=O)C(=O)NCC(c1cccs1)S(=O)(=O)c1cccs1 (stereo not given) | -14.5%
51 | Cc1ccc(/C=C/c2onc(C)c2S(=O)(=O)N2CCC(C(=O)Nc3cc(C)ccc3C)CC2)cc1 | 14.4%
52 | CCC(c1nnnn1C1CCCC1)N1CCN(c2ccccc2)CC1 (stereo not given) | active: 52.1%
53 | COc1cc(Cl)c(NC(=O)CCS(=O)(=O)c2ccc3c(c2)NC(=O)CO3)c(OC)c1 | -5.58%
54 | CCCCCOc1ccc(Cn2c(=O)oc3ccccc32)cc1 | -1.74%
55 | Cc1ccc(S(=O)(=O)Nc2cccc(C(=O)NCC(c3ccccc3)N(C)C)c2)cc1F (stereo not given) | active: 79.2%
56 | COc1ccc(CCNC(=O)c2ccc3c(c2)CCN3S(=O)(=O)c2ccc(C)cc2)cc1 | 9.24%
57 | CC(C)(C)OC(=O)N1CCC(c2c(C(=O)NC3CCN(Cc4ccccc4)CC3)cnn2-c2ccc(F)cc2F)CC1 | -5.93%
58 | CCOc1ccc(NC(=O)C(=O)c2cc(C)n(-c3cc(C)cc(C)c3)c2C)cc1 | 1.3%
59 | Cc1ccc(NC(=O)C2CCCN(S(=O)(=O)c3ccc4c(c3)oc(=O)n4C)C2)cc1Cl (stereo not given) | -6.77%
60 | COc1ccc(-c2cc(C(=O)NCCc3ccccc3)c3c(-c4ccccc4)[nH]nc3n2)cc1OC | -9.29%
61 | O=C(Nc1ccccc1)C(=O)Nc1ccc2c(c1)N(C(=O)C1CC1)CCC2 | active: 35.2%
62 | COc1ccccc1N1CCN(CC(O)COc2ccc(S(=O)(=O)N3CCOCC3)cc2)CC1 (stereo not given) | active: 92.3%
63 | COc1cccc(NC(=O)CSC2=Nc3ccccc3C3=NC(CCC(=O)NCCc4ccccc4)C(=O)N23)c1 (stereo not given) | 2.41%
64 | Cc1cccc(NC(=O)c2ccc3nc(C(C)C)oc3c2)c1C | -10.2%
65 | O=c1c2ccccc2n(Cc2ccccc2Cl)c(=O)n1CCc1ccccc1 | 14.8%
66 | CCOC(=O)c1ccc(Nc2nc3ccc(C(=O)c4ccccc4)cc3n3c(C)nnc23)cc1 | 3.26%
67 | CCCN(CCC)C(=O)Cn1c(=O)n(-c2ccc(CC)cc2)c(=O)c2ccc(C(=O)NCCc3ccccc3)cc21 | 10.7%
68 | Cc1ccc(NC(=O)CN2CCN(S(=O)(=O)c3ccc(C(C)C)cc3)CC2)cc1F | 10.4%
69 | COc1ccc(Nc2nc(N)nc(N)c2S(=O)(=O)c2ccccc2)cc1 | 0.981%
70 | Cc1cn(C)c(CC(=O)N2CCN(c3cccc(Cl)c3)CC2)c1C(=O)O | 21.2%
71 | Cc1ccc(-n2nc(CO)c(C(=O)NC(C)CCCc3ccccc3)n2)cc1 (stereo not given) | 14.5%
72 | COc1ccc(Br)cc1/C=N/NC(=O)CNC(=O)/C=C/c1ccccc1 | active: 76.3%

Row | SMILES | inhibition
73 | CCC(=O)N1CCc2cc(S(=O)(=O)CCC(=O)N3CCN(c4ccc(Cl)cc4)CC3)ccc21 | 6.59%
74 | COc1ccc(NC(=O)c2c(NCc3sccc3C)sc3c2CCCC3)c(OC)c1 | -2.67%
75 | CCc1nn2c(=O)cc(COC(=O)CNC(=O)COc3ccc(C)cc3)nc2s1 | 6.14%
76 | CCCOc1ccc(CN(C(=O)Cc2coc3ccc(CC)cc23)C2CCS(=O)(=O)C2)cc1 (stereo not given) | -5.35%
77 | CCCn1c(=O)sc2cc(NC(=O)c3ccc(OC)c(Br)c3)ccc21 | 17%
78 | CC(C)CC(NS(=O)(=O)c1ccc2c(c1)oc(=O)n2C)C(=O)NCc1ccccc1Cl (stereo not given) | -2.66%
79 | CC(C)c1ccc(NC(=O)c2ccc3c(c2)CCN3S(=O)(=O)c2ccccc2)cc1 | 3.23%
80 | O=C(Nc1nnc(S(=O)(=O)N2CCCc3ccccc32)s1)c1ccccc1Cl | 22.9%
81 | O=C(Nc1ccc(O)c(-c2nc3ccccc3o2)c1)c1sc2ccccc2c1Cl | 1.55%
82 | COc1ccccc1N1CCN(C(=O)c2cn(CC(C)C)c(=O)c3c2c2ccccc2n3C)CC1 | 24.1%
83 | O=C(CSCc1cnn(-c2ccccc2)c1-n1cccc1)NCc1ccc(Cl)cc1 | 18.4%
84 | CCCOc1ccc(NC(=O)CC2C(=O)N(c3cccc(OC)c3)C(=O)N2Cc2cccs2)cc1 (stereo not given) | 0.279%
85 | Cc1nc2ccn(Cc3ccccc3)c(=O)c2cc1C(=O)N1CCN(c2ccccc2F)CC1 | 0.143%
86 | Cc1cc(F)ccc1S(=O)(=O)Nc1ccc2oc3c(c2c1)CC(C)CC3 (stereo not given) | 0.288%
87 | Cc1cccc(C2C=C(c3ccc(C)c(C)c3)Nc3nnnn32)c1 (stereo not given) | 13%
88 | COc1cc(OC)cc(-c2cc3nc(C)c(CCC(=O)NCc4ccccc4)c(C)n3n2)c1 | -10.8%
89 | CCOc1ccccc1C(=O)NC1(C(F)(F)F)NC(=O)N(CCc2ccc(OC)c(OC)c2)C1=O (stereo not given) | 7.74%
90 | O=C(Nc1nc2c(s1)CCCCCC2)Nc1ccc(F)cc1F | 25.9%
91 | CN1C(=O)Cc2cc(S(=O)(=O)NCCc3ccc(Cl)cc3)ccc21 | -12.5%
92 | COc1ccc(-c2noc(CSc3nnc(C)n3-c3ccc(C)cc3)n2)cc1OC | 0.153%
93 | CCOc1ccccc1CNC(=O)C1CCN(S(=O)(=O)c2ccc3[nH]c(=O)ccc3c2)CC1 | 8.44%
94 | CC(C)c1ccc(OCC(O)CN2CCN(c3ccccc3)CC2)cc1 (stereo not given) | active: 78.3%
95 | CCOc1ccccc1NC(=O)Cn1ncc2c(=O)oc3ccc(C)cc3c21 | 10.9%
